Source: article PMC6919601, “Identification of Plasmodium dipeptidyl aminopeptidase allosteric inhibitors by high throughput screening” (PLoS ONE, 2019)
In all, about 110,000 compounds went through this assay and about 230 (0.21%) showed an effect of 50% or more. Some of the results follow.

Target: DPAP1 (Plasmodium falciparum, UniProt Q8IIJ9)
Assay: primary screen, percent inhibition; read by cleavage of a fluorogenic dipeptide substrate; higher = more effect of the substance
Design: species or system P. falciparum D10 trophozoite lysates; single well
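Note: 30 min substrate incubation versus DMSO and 10 µM JCP410 controls.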

Sequence of DPAP1 (Q8IIJ9 whole entry, looked up): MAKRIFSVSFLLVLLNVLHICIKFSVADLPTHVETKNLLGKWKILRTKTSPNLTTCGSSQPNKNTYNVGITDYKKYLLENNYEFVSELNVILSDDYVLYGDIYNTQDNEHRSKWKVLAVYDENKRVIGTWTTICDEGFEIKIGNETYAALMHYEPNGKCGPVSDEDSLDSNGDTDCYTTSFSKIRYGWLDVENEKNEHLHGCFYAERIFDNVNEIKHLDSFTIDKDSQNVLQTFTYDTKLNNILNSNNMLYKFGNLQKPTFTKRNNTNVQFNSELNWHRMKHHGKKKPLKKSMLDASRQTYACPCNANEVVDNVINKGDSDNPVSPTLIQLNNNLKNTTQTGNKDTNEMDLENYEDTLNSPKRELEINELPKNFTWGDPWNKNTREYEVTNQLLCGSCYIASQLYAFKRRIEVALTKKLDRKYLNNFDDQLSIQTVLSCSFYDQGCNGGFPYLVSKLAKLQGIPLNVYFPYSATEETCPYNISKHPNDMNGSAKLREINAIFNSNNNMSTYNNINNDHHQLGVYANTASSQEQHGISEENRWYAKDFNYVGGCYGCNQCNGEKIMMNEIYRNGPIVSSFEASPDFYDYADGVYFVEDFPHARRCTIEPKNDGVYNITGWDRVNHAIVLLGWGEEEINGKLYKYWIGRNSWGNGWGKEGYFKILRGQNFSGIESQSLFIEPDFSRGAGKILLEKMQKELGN

Row | SMILES | % Inhibition @ 10 uM [%]
1 | CCn1cc(Cl)c(C(=O)Nc2c(C)nn(Cc3cccc(F)c3)c2C)n1 | -5.48
2 | CC1=C(C(=O)Nc2ccccc2C)C(c2ccc(C)cc2)NC(=O)N1 (stereo not drawn) | 9.5
3 | CCN(CC)c1ccc(/C=C/C(=O)C23CC4CC(CC(C4)C2)C3)cc1 | 1.38
4 | CCOC(=O)c1sc2ccc(S(=O)(=O)N3CCCCC3)cc2c1N | -1.99
5 | CCCCOC(=O)Nc1nc2ccc(OC)cc2s1 | -5.01
6 | Cc1ccc2c(C)nc(Nc3nc(O)c4c(n3)CCCC4)nc2c1 | -1.42
7 | CC(C)Cc1ccc(-c2[nH]nc3c2C(c2ccsc2)C(C#N)=C(N)O3)cc1 (stereo not drawn) | -4.51
8 | CCOC(=O)c1c(NCc2ccccc2O)sc2c1CCCC2 | 6.12
9 | CCc1ccc(CNC(=O)CN2N=C(c3ccc(C)cc3)CCC2=O)cc1 | -1.43
10 | CC(O)CN(Cc1ccc(F)cc1F)CC(C)O (stereo not drawn) | -1.21
11 | Cc1cc(C)c(-c2c(O)c3cccnc3n(C)c2=O)c(C)c1 | -1.99
12 | CC(=O)Nc1scc(-c2ccccc2)c1C(=O)N1CCOCC1 | 0.778
13 | Cc1ccc(-c2nc(-c3ccccn3)no2)cc1 | 1.52
14 | O=C(NCc1ccncc1)c1ccc(Cl)c(Cl)c1 | 1.88
15 | CC(=O)c1ccc(N2CCN(C(=O)/C(=C/c3cccs3)NC(=O)c3ccccc3)CC2)cc1 | 2.44
16 | Cc1ccc(NC(=O)COc2cccc(C(F)(F)F)c2)cc1 | 0.992
17 | Cc1ccc(-c2ccc(S(=O)(=O)Nc3cccnc3)cc2)cc1 | -0.088
18 | CCCCNC(=O)Cn1c(=O)cc(C)c2c(C)nn(-c3cccc(F)c3)c21 | -0.12
19 | Cc1ccccc1OCC(=O)Nc1cccc(N)c1 | -3.04
20 | CC1CCCCN1Cc1nc2c(c(=O)n(C)c(=O)n2C)n1CCc1ccccc1 (stereo not drawn) | 2
21 | CC(C)(C)c1ccc(C(=O)N(Cc2cccc(F)c2)C2CCS(=O)(=O)C2)cc1 (stereo not drawn) | -4.95
22 | C/N=C1/S/C(=C\c2ccc(-c3cc(Cl)ccc3OC)o2)C(=O)N1C | 6.65
23 | CC(C)(C)c1cc(CCC#N)cc(C(C)(C)C)c1O | -5.51
24 | O=C(CCS(=O)(=O)c1ccccc1)NCc1ccc2c(c1)OCO2 | -3.93
25 | CC(C(=O)NCCc1ccc(Cl)cc1)n1c2ccccc2c2cnnc(O)c21 (stereo not drawn) | -9.53
26 | O=C(CN(CCc1ccccc1)S(=O)(=O)c1ccc(Cl)cc1)N1CCN(c2ccccc2)CC1 | -3.39

Row | SMILES | % Inhibition @ 10 uM [%]
27 | CC(C)CC(NC(=O)c1cccc(NC(=O)N2CCN(Cc3ccccc3)CC2)c1)C(=O)NCC#N (stereo not drawn) | 7.72
28 | O=c1cc(CSc2nc[nH]n2)nc2sccn12 | -3.76
29 | O=c1c(CN2CCN(c3ccc(F)cc3)CC2)coc2c(Cl)cc(Cl)cc12 | -5.65
30 | CCOC(=O)C1CCCN(Cc2ccc(O)cc2)C1 (stereo not drawn) | -1.86
31 | CC(C)C[C@H](NC(=O)c1cccc(-c2ccc(S(C)(=O)=O)cc2)c1)C(=O)NCC#N | 5.76
32 | CS(=O)(=O)N(CC(=O)N1CCc2ccccc2C1)c1cccc(F)c1 | -0.641
33 | COc1ccccc1[N+]1=C2CCCCN2C(O)(c2ccc(C)cc2C)C1 (stereo not drawn) | 1.75
34 | O=C(NCCN1CCCCCC1)c1ccc(CS(=O)(=O)c2c(Cl)cccc2Cl)o1 | -2.85
35 | CCOC(=O)C1CCN(Cc2cccc3ccccc23)CC1 | -0.294
36 | CC1CCN(CC(=O)n2c3c(c4ccccc42)CCCC3)CC1 | 6.22
37 | CC1CCN(S(=O)(=O)c2ccc(NC(=O)COc3ccc4ccccc4c3)cc2)CC1 | -5.96
38 | CCOC(=O)CSc1nc2ccc(N)cc2s1 | -1.2
39 | COC(=O)c1c(NC(=O)/C(C#N)=C/c2ccccc2)sc2c1CCCC2 | -2.87
40 | CCOc1ccc(NC(=O)C(C)N2C(=O)C3C4C=CC(C4)C3C2=O)cc1 (stereo not drawn) | -3.23
41 | Cc1nc2ncnn2c(C)c1CCC(=O)N1CC(C)CC(C)C1 (stereo not drawn) | -10.1
42 | O=C(Nc1ccc(S(=O)(=O)N2CCCCC2)cc1)c1ccc(F)cc1 | 5.03
43 | CC(NS(=O)(=O)c1ccc2oc(=O)c3ncn(C)c3c2c1)c1ccccc1 (stereo not drawn) | -0.0709
44 | CCNC(=O)c1cccnc1Nc1cccc(C(F)(F)F)c1 | 4.83
45 | O=C1CC(N2CCCC2)C(=O)N1c1ccc(Cl)c(Cl)c1 (stereo not drawn) | -5.31
46 | O=S1(=O)CC(c2ccccc2)CS(=O)(=O)C1CCN1CCCCC1 (stereo not drawn) | -5.28
47 | O=C(Cn1c2ccccc2c2cnnc(O)c21)NCCN1CCOCC1 | 4.55
48 | Cc1c(CN2CCOCC2)c(=O)n(-c2ccccc2)n1C | 1.38
49 | O=C(CCC(=O)n1ncc2ccc(Cl)cc21)NCc1ccco1 | 3.84
50 | CCC(C)NC(=O)C1CCN(Cc2nc(-c3ccccc3C)oc2C)CC1 (stereo not drawn) | 0.689
51 | O=C1NC(=O)N(Cc2ccccc2)C(=O)/C1=C\c1ccccc1 | 0.0345
